13 molecules from US20250320181A1 (priority 2021, published 2025) can be followed below.

Broadly, the IC50 is the point on the concentration scale where inhibition reaches its midpoint. Read a low IC50 as greater potency.

SMILES strings stand for the structures. Bounds are passed on as bounds.

The target of this experiment is Gelatinase E (GelE) (Enterococcus faecalis, UniProt Q833V7). Nature of the experiment: biochemical. The method, then: E. faecalis was cultured aerobically in Todd Hewitt Broth overnight at 37° C. Nucleic acid is precipitated with 0.9% protamine solution, followed by protein precipitation with ammonium sulfate. Resuspended protein pellet was further subjected to purification using FPLC (phenyl Sepharose column). Fractions with gelatinase activity as determined by casein agar assay were pooled and further concentrated.
Different concentrations of test compound were incubated with purified GelE and FRET-based peptide substrate (390 MMP FRET Substrate 1; AnaspecAS-27077) in assay buffer at room temperature for 30 minutes. The fluorescence signal was determined by a plate reader.
Regarding `CCC(=O)c1ccc(N2C(=N)SCC2=O)cc1` [Compound 16], the 50% inhibitory concentration (IC50) is > 37.8 µM.
Then `CNC(=O)[C@H](C)NC(=O)c1ccc(NC(=O)CSC(N)=O)cc1` [Compound 8], with > 100 µM; and `COc1ccc(NC(=O)CSC(N)=O)cc1` [Compound 3], with 60.1 µM; and `COC(=O)c1ccc(NC(=O)CSC(N)=O)cc1` [Compound 2], with 155 µM.
Then `CNC(=O)C(C)Oc1ccc(NC(=O)CSC(N)=O)cc1` (stereo not shown) [Compound 11], with 45.4 µM; and `CC(=O)c1ccc(NC(=O)CSC(N)=O)cc1` [Compound 1, S-(2-((4-acetylphenyl)amino)-2-oxoethyl) carbamothioate], with 33.7 µM.
Then `COc1ccc(NC(=O)CSC(C)=O)cc1` [Compound 6], with 4.16 µM; and `COC(=O)c1ccc(NC(=O)CSC(C)=O)cc1` [Compound 5], with 28.9 µM; and `CNC(=O)[C@H](Cc1ccccc1)NC(=O)c1ccc(NC(=O)CSC(N)=O)cc1` [Compound 7], with > 100 µM.
As for `CC(=O)n1cc(NC(=O)CSC(N)=O)cn1` [Compound 12], the IC50 was > 100 µM.
As to `CC(=O)SCC(=O)Nc1ccc(C(C)=O)cc1` [Compound 4], 1.53 µM corresponded to half-maximal inhibition (IC50).
Regarding `NC(=O)SCC(=O)Nc1ccc(C(=O)CC(F)(F)F)cc1` [Compound 9], the IC50 is > 160 µM.
With `CNC(=O)COc1ccc(NC(=O)CSC(N)=O)cc1` [Compound 10] the figure was > 200 µM.
